To fix the notation:
B1: chr11:77340908:77340909:-_ENSG00000074201_ENST00000525064|hu_hu|hu_hu_hu_mus_True|8_98 (ssRNA)
RNA: GGGAGUUCUACAGUCCGACGAUCGUUUGGAUCCCUGGAUAAUGCAUGUAAACUAAUGGUGGGGUAUUCCAGUGAGAAUCCUAAUCCCGAACCAUCUAACCAGGACAGGCGGCUCUCCGCGAUGUAAAGGGUACCAGUGCCGAGCAACAGAGGAUUGAGCAUCA
B2: chr7:65705844:65705845:+_ENSG00000169902_ENST00000304842|hu_mus|hu_hu_hu_mus_False|28_58 (ssRNA)
RNA: GGGAGUUCUACAGUCCGACGAUCAAACGGAUCUUUGUUACAUAAAUAAGGUGCCGGCUCCCCAUGUUUAACAAUGAUUUCUAGUAAGAAGGCUUGCAUGGCAGAAUCCAGCACUUCAUCUGUGACACCCGCCUCAUCCAAGCGCAACAGAGGAUUGAGCAUCA
B3: chr1:220276048:220276049:+_ENSG00000067704_ENST00000302637|hu_hu|hu_hu_hu_mus_True|18_18 (ssRNA)
RNA: GGGAGUUCUACAGUCCGACGAUCGCAAAUUGCCUGGUUGGCGGGAAUUGUCCAAGGCUGGGUGGUCCAAACUAAAACGCUAACAGGGGAUGAGGCAUCUGUAAGAGACUCCAACUUUGGAGAAGGCCUCAGGAGGGGGAAUCUCAACAGAGGAUUGAGCAUCA
B4: chr17:49043493:49043494:-_ENSG00000008294_ENST00000510283|hu_hu|FALSE|FALSE (ssRNA)
RNA: GGGAGUUCUACAGUCCGACGAUCUUUGAUUUGUUCAUAAUAUACUGAAGUUACCUAUAACACUGGUGCAGUAACACAGCUAGUUCCUCUGUAUUGUUAUGGUAGAACGGAUUUUGUAAUAUAAAGUUAACAGGAAAAAAUGCUCAACAGAGGAUUGAGCAUCA
B5: chr12:112501303:112501304:+_ENSMUSG00000021277_ENSMUST00000021706|mus_hu|FALSE|FALSE (ssRNA)
RNA: GGGAGUUCUACAGUCCGACGAUCACCAGCUCUACGCACAACGUUGCUUUCGGAGACCGUUGACGGCAUGCAGCAAGAUGACGGGAUGGAGAAACACACCUGCGGGCCUCCCUCAGCAGUCACCCGCCCACCCCUGACAUGGAGCAACAGAGGAUUGAGCAUCA
B6: 119844259_119844701_2432_CDS_ENSMUSG00000033902_ENSMUST00000066058|mouse|control|control (ssRNA)
RNA: GGGAGUUCUACAGUCCGACGAUCGAGAUGUUUGCAAUCGUUACUAAAUUUCAUGCCAGUGACAAUCUCUGAGUGGCCAAACAUGGUGGCCACACACUCGCCUGAGGAGAAGUCAAAAAUGGAGAGAUUCUUAUCGGAACAGCUCAACAGAGGAUUGAGCAUCA
B7: chr7:135840685:135840686:-_ENSMUSG00000048170_ENSMUST00000057557|mus_hu|FALSE|FALSE (ssRNA)
RNA: GGGAGUUCUACAGUCCGACGAUCGGCUGACCCUGUUUCCUUGGUUAACAAUUUCAAUUUAGGCCUUAUAGGAAAAAACGUAAGGGAUCCUUUAUCUGCCUCCAACUAGGUAAGUUAUUUGAUACCACUGACAGCUUAAAAAGUCAACAGAGGAUUGAGCAUCA
B8: chr6:79679595:79679596:-_ENSG00000146247_ENST00000275034|hu_mus|motif|central (ssRNA)
RNA: GGGAGUUCUACAGUCCGACGAUCUAUAUUCCAUCGUCUAUACUUUGCAUCAUCAAAUUGUUGUCUCAAGACUAGAAAAUCGGUGACGUCAGGCAUAUCAUGGUAUUUCAUGGUAAAUGAUCCACCGGUCAGUUUGCCAGUAUCCAACAGAGGAUUGAGCAUCA
B9: chr2:217001844:217001845:+_ENSG00000079246_ENST00000392132|hu_hu|hu_hu_hu_mus_False|68_68 (ssRNA)
RNA: GGGAGUUCUACAGUCCGACGAUCACCAACUUGAGGAUUAGAUCUUUUGUCAUAAGCAUAUCGGACGAUGGCCACCAUGUUUAACUCAUCCAAAGCAUGAACGAGAGAGGAAAGGGCAACAGCUGCCGCCUCAUCAUCCUUUGCCAACAGAGGAUUGAGCAUCA
B10: 75867097_75868833_2698_CDS_ENSG00000035403_ENST00000372755|human|control|control (ssRNA)
RNA: GGGAGUUCUACAGUCCGACGAUCCUGCUCAGGGAACUCUUCAUCCUUUUCCUCUGGUGGUGGAGGCCUAGGUGGAGGGACCUCACCUUCAGGCAGAGGUGGUUUGGGAGGAGCAAGCUCAUCUGUUAGUCGGAGUUGUUCAAGCAACAGAGGAUUGAGCAUCA
B11: chr17:13115065:13115066:+_ENSMUSG00000068039_ENSMUST00000151287|mus_hu|FALSE|FALSE (ssRNA)
RNA: GGGAGUUCUACAGUCCGACGAUCAAUAGUUGCUCCAGAAGCUUUGGCAAUGCGUUUAAGGUCCCUUUUUAAAACUCUUCUAACUGCCAUAGCACCAGCCUCCACAAAAUACUUCAGACACAUAUCAUCAAUUCCACCAGUGGUCAACAGAGGAUUGAGCAUCA
B12: chr1:220275481:220275482:+_ENSG00000067704_ENST00000302637|hu_hu|FALSE|FALSE (ssRNA)
RNA: GGGAGUUCUACAGUCCGACGAUCAAAUGCUGAUUUCUGUUUCUCAAUGGCUGCUUUAGCAAAUGAUCUAGCUUUCUUUCUAAUUUCCAUAGCUGAAAGAUUCUGAGCUUCUCUACCAAGUUCUGAUAAUACUUUUAUUUCAAUCAACAGAGGAUUGAGCAUCA
B13: 78012816_78016265_409_CDS_ENSMUSG00000025428_ENSMUST00000026495|mouse|control|control (ssRNA)
RNA: GGGAGUUCUACAGUCCGACGAUCAGCUGUGCCAGUCUUCUGAAGUCGAGUGUUAGAGGCAUGGAGAUUUCUUGCACCAACAAAGGAUGACCCCAAAGCAUUUUUGGAGACCAGUCCCGCCCGUCGAGGGAGGGCACGGGCCACCAACAGAGGAUUGAGCAUCA
B14: 16720979_16721531_715_3pUTR_ENSG00000125870_ENST00000246071|human|control|control (ssRNA)
RNA: GGGAGUUCUACAGUCCGACGAUCGCCUCCCUGGUACCAGACGUACUUCCUUGAAGCCAGGGAACUGAUUAAACAGCAUGGAUAACAUCAUCUCAUUAGUCUCUUCUGGUAAGUUAUUAAGGAAUAAAAUAUAGUUUGGAGGGUCAACAGAGGAUUGAGCAUCA
B15: chr2:103900078:103900079:+_ENSMUSG00000027180_ENSMUST00000028603|mus_mus|FALSE|FALSE (ssRNA)
RNA: GGGAGUUCUACAGUCCGACGAUCGAAGUCUGGUCUGGUGUAGGCAUGGUGCACACAUCUAGCACUUGGGAGGCAAUCGAGCUAUAGACACCCUGAAUGUUGGACAUGCCAUGUGGAAUCGGGGGAUGGCAACAUUAAAGACCUCAACAGAGGAUUGAGCAUCA
B16: chr5:31101443:31101444:+_ENSMUSG00000029168_ENSMUST00000114729|mus_mus|FALSE|FALSE (ssRNA)
RNA: GGGAGUUCUACAGUCCGACGAUCUGGUUUUUGGGUCAAUAUAAGAGAUGCCAUUGUCACGGCAAUGGCUUGACAAGCAACCUACUGUGGACUCCUAGCACUACACAUACACACACGCACACACACACUGUAGCACAAUUUUCUCAACAGAGGAUUGAGCAUCA
B17: 91656768_91656888_2245_CDS_ENSMUSG00000022961_ENSMUST00000114036|mouse|control|control (ssRNA)
RNA: GGGAGUUCUACAGUCCGACGAUCCUGGGAGUCCAUGGUGCUAGAGGCUAACAUCUGGGAGUCCAUGGUAUUGGAUGCUAGCAUCUGAGAAUCCAUAGUGUUGGAUGCUAGCAUCUGGGAGUCCAUGGUAUUGGAUGCUAACAUCAACAGAGGAUUGAGCAUCA
B18: chr9:74900086:74900087:+_ENSMUSG00000007656_ENSMUST00000169492|mus_hu|FALSE|FALSE (ssRNA)
RNA: GGGAGUUCUACAGUCCGACGAUCUUGUCCCAGAUGAGGAUAUCUUGCUUUUAAUUUUGCUUCUUCUGCUUUCUCUGGACUAGUCACUUUAUCUUCCAUUUCCUUCUGCUCCUCCGCGGAGGCUGCCUCGGGGACUUCCGCAGACAACAGAGGAUUGAGCAUCA
B19: chr1:155290277:155290278:+_ENSG00000160752_ENST00000447866|hu_hu|FALSE|FALSE (ssRNA)
RNA: GGGAGUUCUACAGUCCGACGAUCGUACUGUUCAAUGAGAGCCAUAAUGUGGCUGUAACUGUCUUCCUCAUAUUGCAAGAACACUGCUGGCAGAUCCAGCUCCUCAUAUAGCGCCUUCACCCGGGCCACUUUCUCAGCCUCCUUCAACAGAGGAUUGAGCAUCA
B20: chr5:33170631:33170632:-_ENSMUSG00000054280_ENSMUST00000120129|mus_mus|FALSE|FALSE (ssRNA)
RNA: GGGAGUUCUACAGUCCGACGAUCGGAAUGGCACAGAGUAGCCUUCGGCUUUGGUAUGUGGCUGCGCAAGUUCUCGCUAGCUACGGUUUCAGGUUCCAAUGGCUUGGCAGGCACAGUACAUGGGCUGAGAAGUCUGUGUGCUUUCAACAGAGGAUUGAGCAUCA
B21: chr4:76721835:76721836:+_ENSG00000138768_ENST00000264904|hu_mus|hu_hu_hu_mus_True|38_58 (ssRNA)
RNA: GGGAGUUCUACAGUCCGACGAUCGUUUGGCUGGGGUUUCUGAGACGCUCUGGAAUAUAACUCAUGUUUGCUAAUAAUCCUAGUUUCCUCUAUGAAAUCUCUUUGCCCAAUCCUCUUCUCUAUUAGUUGCUUUAGUUUCUCUUUCAACAGAGGAUUGAGCAUCA
B22: chr1:85787162:85787163:-_ENSG00000153904_ENST00000284031|hu_mus|FALSE|FALSE (ssRNA)
RNA: GGGAGUUCUACAGUCCGACGAUCCUGGCCACAGGGAAGGGACUCUCUGGCUCAGGAGUCUAUCUUCUUGUUAAUAAAAACGGAGCAGCAGGUGAGCAAGCCGUCCACCUUUUCCAUCUCCGAGUUGCUCACAGGGAUCAGUAGCAACAGAGGAUUGAGCAUCA

The other results are listed elsewhere or left out.

The experiment addresses T1, UNK ZnF1-3 (human, UniProt Q9C0B0 31-174).
T1 sequence: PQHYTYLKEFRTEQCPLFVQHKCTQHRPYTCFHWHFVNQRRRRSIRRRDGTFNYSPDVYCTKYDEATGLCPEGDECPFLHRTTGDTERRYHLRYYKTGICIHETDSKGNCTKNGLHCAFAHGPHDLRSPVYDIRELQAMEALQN
Kind of experiment: nsRBNS (natural sequence RNA bind-n-seq); RBNS binding buffer (assumed for nsRBNS): 25 mM Tris pH 7.5, 150 mM KCl, 3 mM MgCl2, 0.01% Triton X-100, 500 ug/ml BSA, 20 U/ml SUPERase-In, 4 C; UNK is unkempt and MSI1 is Musashi-1; names of the RNAs are library labels; protein concentration not given here; high values mean tight binding.
The molecule B1 registered a binding signal of 1.27 enrichment R. B2 displayed a binding signal of 0.455 enrichment R. Molecule B3 came in with a binding signal of 2.49 enrichment R. Molecule B4 yielded a binding signal of 1.29 enrichment R.

Take B5: the binding signal was 1.36 enrichment R. For B6, the binding signal worked out at 1.03 enrichment R. The molecule B7 gave a binding signal of 0.989 enrichment R. The figure for B8 is 0.645 enrichment R. B9 came in with a binding signal of 2.24 enrichment R. In turn, B10 had a binding signal of 1.1 enrichment R. In turn, B11 showed a binding signal of 1.21 enrichment R. The figure for B12 is 0.789 enrichment R. The figure for B13 is 2.96 enrichment R; for B14 it is 2.96 enrichment R; for B15 it is 1.55 enrichment R.

With B16, the binding signal was determined as 1.1 enrichment R. The figure for B17 is 1.27 enrichment R; for B18 it is 0.474 enrichment R.

For B19, the binding signal is 0.847 enrichment R.

Molecule B20 showed a binding signal of 0.766 enrichment R. The figure for B21 is 0.362 enrichment R.

Consider B22, for which the binding signal was found to be 0.94 enrichment R.

The record behind these values is paper PMC12136788.
